The other results are listed elsewhere or left out.

For the experiment, the system named is S. aureus RN4220. As to the kind of experiment: growth inhibition call (relative growth <= 0.2). The conditions noted are these: 50 µM.
For `CS(=O)(=O)Nc1ccc2c(c1)[C@H]1C[C@H](CC(=O)NCc3ccc(-c4ccccc4)cc3)O[C@@H](CO)[C@H]1O2`, the growth inhibition call was “inactive”. Next, `C[C@@H]1CCCCO[C@@H](CN(C)Cc2ccncc2)[C@H](C)CN([C@H](C)CO)C(=O)c2cc(NC(=O)c3ccccc3)ccc2O1`: “inactive”; `C[C@@H]1CCCCO[C@@H](CN(C)C(=O)Nc2cccc3ccccc23)[C@@H](C)CN([C@H](C)CO)C(=O)c2cc(NC(=O)Nc3ccccc3)ccc2O1`: “inactive”. To `CO[C@@H]1CN(C)C(=O)c2ccc(NS(C)(=O)=O)cc2OC[C@H](C)N(C(=O)CN(C)C)C[C@H]1C` belongs “inactive”. To `COc1ccc(-c2cnc3c(c2)C(=O)N([C@H](C)CO)C[C@@H](C)[C@H](CN(C)C(=O)Cc2ccncc2)O3)cc1` belongs “inactive”; to `C[C@@H]1CN([C@H](C)CO)C(=O)CCCn2cc(nn2)CO[C@@H]1CN(C)S(=O)(=O)c1ccccc1C#N`, “inactive”.

Consider `Cc1ccc(=O)[nH]n1`, for which the growth inhibition call is “inactive”. On to `O=C(C[C@@H]1CC[C@@H]2[C@H](COC[C@H](O)CN2S(=O)(=O)c2ccc(F)cc2)O1)NCc1ccncn1`, for which the growth inhibition call was “inactive”. Next, `CN(C)CCCNC(=O)C[C@@H]1C=C[C@@H](NC(=O)Cc2cccnc2)[C@@H](CO)O1`: “inactive”; `C[C@@H]1CN([C@H](C)CO)C(=O)Cc2cc(NC(=O)Nc3cccc4ccccc34)ccc2O[C@@H]1CN(C)Cc1ccc(C(F)(F)F)cc1`: “inactive”. To `C=CC(=O)NS(=O)(=O)c1ccccc1` belongs “inactive”; to `COC(=O)Cn1c(Cl)nc2c1c(=O)n(C)c(=O)n2C`, “inactive”; to `CN1CCN(C(=O)[C@H]2C[C@H]3CN(c4ncc(F)cn4)C[C@@H]3N2C)CC1`, “inactive”. Next, `C[C@@H]1CN([C@@H](C)CO)C(=O)c2cccc(NC(=O)c3ccncc3)c2O[C@@H]1CN(C)S(=O)(=O)c1cccs1`: “inactive”. Regarding `C[C@H]1CN([C@@H](C)CO)C(=O)Cc2cc(NC(=O)Cn3cnnn3)ccc2O[C@H]1CN(C)Cc1ccc(C(=O)Nc2ccccc2N)cc1`, the growth inhibition call was “inactive”. Next, `COc1ccc(C#Cc2ccc3c(c2)O[C@@H](CN(C)C(C)=O)[C@H](C)CN([C@@H](C)CO)S3(=O)=O)cc1`: “inactive”; `C[C@H]1CN([C@@H](C)CO)C(=O)CCCn2nncc2CO[C@@H]1CN(C)S(=O)(=O)c1ccccc1C#N`: “inactive”.

Source of the values: the antibiotic and cytotoxicity screens of Wong et al. (2023).
